Results are given in words; binding and its absence hold for the method and conditions named. In cells and extracts the contact can be indirect. Some binding calls cover weakened binding; strength is not graded here. For some assays here: Tags and fused reporters may be left off the sequences shown.
Assays:
Experiment in all cases: split reporter; YFP-BiFc with full-length genes in transfected HEK293 cells; YFP-fluorescent cells counted by flow cytometry (FACS Canto II), 50,000 cells per sample; values of both tag orientations (YFP1/YFP2) combined
[1] = target: melanocortin 3 receptor (MC3R), human, full length, fused to a YFP fragment (human) (UniProt P41968)
[2] = target: rat cholinergic receptor, muscarinic 3 (rCHRM3), fused to a YFP fragment (rat) (UniProt P08483)
[3] = target: G protein-coupled receptor 83 (GPR83) (mouse) (UniProt P30731)
[4] = target: ring finger protein 11 (RNF11), murine, full length, fused to a YFP fragment (mouse) (UniProt Q9QYK7)

Protein sequences, listed by entry. Tags and fused reporters are not part of them. Residues count along the entry.
UniProt P41968: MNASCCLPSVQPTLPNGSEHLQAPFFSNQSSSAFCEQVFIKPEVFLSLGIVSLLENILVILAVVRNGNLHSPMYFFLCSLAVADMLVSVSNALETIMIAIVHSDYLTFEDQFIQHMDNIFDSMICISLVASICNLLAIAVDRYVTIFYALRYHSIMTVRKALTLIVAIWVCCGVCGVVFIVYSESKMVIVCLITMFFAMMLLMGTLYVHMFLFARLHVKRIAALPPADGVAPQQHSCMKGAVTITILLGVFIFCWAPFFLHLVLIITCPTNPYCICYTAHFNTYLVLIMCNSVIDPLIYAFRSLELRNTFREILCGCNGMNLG
UniProt P08483: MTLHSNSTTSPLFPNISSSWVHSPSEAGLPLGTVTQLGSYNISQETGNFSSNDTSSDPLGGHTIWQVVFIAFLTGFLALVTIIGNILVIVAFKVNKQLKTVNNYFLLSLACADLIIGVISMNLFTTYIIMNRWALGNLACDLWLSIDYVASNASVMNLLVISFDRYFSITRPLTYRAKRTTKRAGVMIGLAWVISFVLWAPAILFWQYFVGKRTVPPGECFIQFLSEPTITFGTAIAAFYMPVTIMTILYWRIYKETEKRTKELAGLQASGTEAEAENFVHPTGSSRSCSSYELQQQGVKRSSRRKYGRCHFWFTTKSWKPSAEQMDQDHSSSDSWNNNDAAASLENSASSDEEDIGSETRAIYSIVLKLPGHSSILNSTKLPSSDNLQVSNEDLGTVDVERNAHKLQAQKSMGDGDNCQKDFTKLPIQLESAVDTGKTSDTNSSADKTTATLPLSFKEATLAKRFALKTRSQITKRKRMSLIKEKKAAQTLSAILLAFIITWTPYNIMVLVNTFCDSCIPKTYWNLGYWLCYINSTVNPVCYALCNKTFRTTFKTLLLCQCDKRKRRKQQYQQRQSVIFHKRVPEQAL
UniProt P30731, residues 18-423: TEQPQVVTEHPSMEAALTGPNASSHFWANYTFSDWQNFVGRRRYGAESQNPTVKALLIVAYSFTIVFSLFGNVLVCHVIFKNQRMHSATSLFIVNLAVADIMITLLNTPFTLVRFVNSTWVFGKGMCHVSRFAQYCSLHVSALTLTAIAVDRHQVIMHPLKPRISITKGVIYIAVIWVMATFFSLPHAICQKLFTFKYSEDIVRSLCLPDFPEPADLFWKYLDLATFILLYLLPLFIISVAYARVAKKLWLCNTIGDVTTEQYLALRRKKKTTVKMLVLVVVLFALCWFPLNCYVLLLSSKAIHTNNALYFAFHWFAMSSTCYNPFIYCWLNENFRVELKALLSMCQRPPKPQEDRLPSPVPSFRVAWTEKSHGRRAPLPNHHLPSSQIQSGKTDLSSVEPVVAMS
UniProt Q92847: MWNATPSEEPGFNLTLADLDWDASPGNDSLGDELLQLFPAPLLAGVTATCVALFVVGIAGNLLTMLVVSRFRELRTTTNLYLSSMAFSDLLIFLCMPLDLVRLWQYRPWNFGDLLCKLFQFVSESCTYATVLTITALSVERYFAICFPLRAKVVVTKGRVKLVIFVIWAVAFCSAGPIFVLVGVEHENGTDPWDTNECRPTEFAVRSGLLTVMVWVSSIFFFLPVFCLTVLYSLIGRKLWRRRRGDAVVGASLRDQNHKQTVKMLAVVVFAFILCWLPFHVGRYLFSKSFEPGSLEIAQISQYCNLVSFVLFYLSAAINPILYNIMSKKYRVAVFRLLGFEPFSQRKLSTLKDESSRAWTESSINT

growth hormone secretagogues receptor (GHSR), human, full length, fused to a YFP fragment (from UniProt Q92847 1-366)
binding [1]: binds | binding [2]: no binding

B1: ring finger protein 11 (RNF11), murine, full length, fused to a YFP fragment (protein, UniProt Q9QYK7 1-154)
chain: MGNCLKSPTSDDISLLHESQSDRASFGEGTEPDQEPPPPYQEQVPVPIYHPTPSQTRLATQLTEEEQIRIAQRIGLIQHLPKGVYDPGRDGSEKKIRECVICMMDFVYGDPIRFLPCMHIYHLDCIDDWLMRSFTCPSCMEPVDAALLSSYETN
binding [3]: binds | binding [4]: binds | binding [2]: no binding

From article PMC4976663
